# The supplement of paper PMC8728848
# Some of the results follow.
# B1: DC-ASGPR L+GEE (Homo sapiens) (protein)
# chain: MTRTYENFQYLENKVKVQGFKNGPLPLQSLLQRLRSGPCHLLLSLGLGLLLLVIICVVGFQNSKFQRDLVTLRTDFSNFTSNTVAEIQALTSQGSSLEETIASLKAEVEGFKQERQAGVSELQEHTTQKAHLGHCPHCPSVCVPVHSEMLLRVQQLVQDLKKLTCQVATLNNNGEEASTEGTCCPVNWVEHQDSCYWFSHSGMSWAEAEKYCQLKNAHLVVINSREEQNFVQKYLGSAYTWMGLSDPEGAWKWVDGTDYATGFQNWKPGQPDDWQGHGLGGGEDCAHFHPDGRWNDDVCQRPYHWVCEAGLGQTSQESH
# Columns and labels:
# Test in all cases: glycan array binding signal (z-score within array); higher = stronger binding
# Conditions in all cases: glycan notation: IUPAC condensed, linker removed
# Kdn(a2-3)Gal(b1-3)GlcNAc = molecular target: Kdn(a2-3)Gal(b1-3)GlcNAc
# In short: (§1)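 Arrays were curated from the Consortium for Functional Glycomics database, 3228 in total, and kept only where the protein sequence was available. Binding is expressed as a within-array Z-score. This score was averaged across arrays of the same protein sequence at different concentrations or buffers and across linkers, and negative values can be read as non-binding.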
# Kdn(a2-3)Gal(b1-4)Glc = molecular target: Kdn(a2-3)Gal(b1-4)Glc
# In short: as §1
# Kdn(a2-3)Gal(b1-4)GlcNAc = molecular target: Kdn(a2-3)Gal(b1-4)GlcNAc
# In short: as §1
# [1] = molecular target: Kdn(a2-3)Gal(b1-4)[Fuc(a1-3)]GlcNAc
# In short: as §1
# Kdn(a2-6)Gal(b1-4)GlcNAc = molecular target: Kdn(a2-6)Gal(b1-4)GlcNAc
# In short: as §1
# [2] = molecular target: Man(a1-2)Man(a1-2)Man(a1-3)Man
# In short: as §1
# [3] = molecular target: Man(a1-2)Man(a1-2)Man(a1-6)[Man(a1-3)]Man
# In short: as §1
# Man(a1-2)Man(a1-3)Man = molecular target: Man(a1-2)Man(a1-3)Man
# In short: as §1
# [4] = molecular target: Man(a1-2)Man(a1-3)[Man(a1-2)Man(a1-6)]Man
# In short: as §1
# [5] = molecular target: Man(a1-2)Man(a1-3)[Man(a1-2)Man(a1-6)]Man(a1-6)[Man(a1-2)Man(a1-2)Man(a1-3)]Man
# In short: as §1
# [6] = molecular target: Man(a1-2)Man(a1-3)[Man(a1-2)Man(a1-6)]Man(a1-6)[Man(a1-2)Man(a1-2)Man(a1-3)]Man(b1-4)GlcNAc(b1-4)GlcNAc
# In short: as §1
# [7] = molecular target: Man(a1-2)Man(a1-3)[Man(a1-6)]Man(a1-6)[Man(a1-2)Man(a1-3)]Man(b1-4)GlcNAc(b1-4)GlcNAc
# In short: as §1
# [8] = molecular target: Man(a1-2)Man(a1-6)[Man(a1-3)]Man(a1-6)[Man(a1-2)Man(a1-2)Man(a1-3)]Man
# In short: as §1
# [9] = molecular target: Man(a1-2)Man(a1-6)[Man(a1-3)]Man(a1-6)[Man(a1-2)Man(a1-2)Man(a1-3)]Man(b1-4)GlcNAc(b1-4)GlcNAc
# In short: as §1
# Man(a1-3)[Man(a1-6)]Man = molecular target: Man(a1-3)[Man(a1-6)]Man
# In short: as §1
# [10] = molecular target: Man(a1-3)[Man(a1-6)]Man(a1-6)[Man(a1-2)Man(a1-3)]Man(b1-4)GlcNAc(b1-4)GlcNAc
# In short: as §1
# [11] = molecular target: Man(a1-3)[Man(a1-6)]Man(a1-6)[Man(a1-3)]Man
# In short: as §1
# [12] = molecular target: Man(a1-3)[Man(a1-6)]Man(a1-6)[Man(a1-3)]Man(b1-4)GlcNAc(b1-4)GlcNAc
# In short: as §1
# [13] = molecular target: Man(a1-3)[Man(a1-6)]Man(b1-4)GlcNAc(b1-4)GlcNAc
# In short: as §1
# [14] = molecular target: Man(a1-3)[Man(a1-6)]Man(b1-4)GlcNAc(b1-4)[Fuc(a1-6)]GlcNAc
# In short: as §1
# Man(a1-6)Man = molecular target: Man(a1-6)Man
# In short: as §1
# Man(b1-4)GlcNAc = molecular target: Man(b1-4)GlcNAc
# In short: as §1
# MurNAc(b1-4)GlcNAc = molecular target: MurNAc(b1-4)GlcNAc
# In short: as §1
# Neu5Ac(a2-3)Gal = molecular target: Neu5Ac(a2-3)Gal
# In short: as §1
# [15] = molecular target: Neu5Ac(a2-3)Gal(b1-3)GalNAc
# In short: as §1
# [16] = molecular target: Neu5Ac(a2-3)Gal(b1-3)GalNAc(b1-3)Gal(a1-4)Gal(b1-4)Glc
# In short: as §1
# [17] = molecular target: Neu5Ac(a2-3)Gal(b1-3)GalNAc(b1-4)Gal(b1-4)Glc
# In short: as §1
# [18] = molecular target: Neu5Ac(a2-3)Gal(b1-3)GalNAc(b1-4)[Neu5Ac(a2-3)]Gal(b1-4)Glc
# In short: as §1
# [19] = molecular target: Neu5Ac(a2-3)Gal(b1-3)GalNAc(b1-4)[Neu5Ac(a2-8)Neu5Ac(a2-3)]Gal(b1-4)Glc
# In short: as §1
# [20] = molecular target: Neu5Ac(a2-3)Gal(b1-3)GalNAc6S
# In short: as §1
# [21] = molecular target: Neu5Ac(a2-3)Gal(b1-3)GlcNAc
# In short: as §1
# [22] = molecular target: Neu5Ac(a2-3)Gal(b1-3)GlcNAc(b1-2)Man
# In short: as §1
# [23] = molecular target: Neu5Ac(a2-3)Gal(b1-3)GlcNAc(b1-2)Man(a1-3)[GlcNAc(b1-4)][Neu5Ac(a2-3)Gal(b1-3)GlcNAc(b1-2)Man(a1-6)]Man(b1-4)GlcNAc(b1-4)GlcNAc
# In short: as §1
# [24] = molecular target: Neu5Ac(a2-3)Gal(b1-3)GlcNAc(b1-2)Man(a1-3)[Neu5Ac(a2-3)Gal(b1-3)GlcNAc(b1-2)Man(a1-6)]Man(b1-4)GlcNAc(b1-4)GlcNAc
# In short: as §1
# [25] = molecular target: Neu5Ac(a2-3)Gal(b1-3)GlcNAc(b1-2)[Neu5Ac(a2-3)Gal(b1-3)GlcNAc(b1-4)]Man(a1-6)[Neu5Ac(a2-3)Gal(b1-3)GlcNAc(b1-2)Man(a1-3)]Man(b1-4)GlcNAc(b1-4)GlcNAc
# In short: as §1
# [26] = molecular target: Neu5Ac(a2-3)Gal(b1-3)GlcNAc(b1-3)Gal(b1-3)GlcNAc
# In short: as §1
# [27] = molecular target: Neu5Ac(a2-3)Gal(b1-3)GlcNAc(b1-3)Gal(b1-4)GlcNAc
# In short: as §1
# [28] = molecular target: Neu5Ac(a2-3)Gal(b1-3)GlcNAc(b1-3)GalNAc
# In short: as §1
binder,measurement,setting,value
B1,glycan array binding signal (z-score),Kdn(a2-3)Gal(b1-3)GlcNAc,0.041
same,glycan array binding signal (z-score),Kdn(a2-3)Gal(b1-4)Glc,-0.481
same,glycan array binding signal (z-score),Kdn(a2-3)Gal(b1-4)GlcNAc,-0.074
same,glycan array binding signal (z-score),[1],-0.506
same,glycan array binding signal (z-score),Kdn(a2-6)Gal(b1-4)GlcNAc,-0.08
same,glycan array binding signal (z-score),[2],-0.611
same,glycan array binding signal (z-score),[3],-0.725
same,glycan array binding signal (z-score),Man(a1-2)Man(a1-3)Man,-0.345
same,glycan array binding signal (z-score),[4],-0.348
same,glycan array binding signal (z-score),[5],0.008
same,glycan array binding signal (z-score),[6],-0.745
same,glycan array binding signal (z-score),[7],-0.13
same,glycan array binding signal (z-score),[8],-0.688
same,glycan array binding signal (z-score),[9],-0.079
same,glycan array binding signal (z-score),Man(a1-3)[Man(a1-6)]Man,-0.211
same,glycan array binding signal (z-score),[10],0.017
same,glycan array binding signal (z-score),[11],-0.404
same,glycan array binding signal (z-score),[12],-0.63
same,glycan array binding signal (z-score),[13],-0.574
same,glycan array binding signal (z-score),[14],0.272
same,glycan array binding signal (z-score),Man(a1-6)Man,-0.554
same,glycan array binding signal (z-score),Man(b1-4)GlcNAc,-0.179
same,glycan array binding signal (z-score),MurNAc(b1-4)GlcNAc,-0.441
same,glycan array binding signal (z-score),Neu5Ac(a2-3)Gal,-0.812
same,glycan array binding signal (z-score),[15],-0.017
same,glycan array binding signal (z-score),[16],-0.449
same,glycan array binding signal (z-score),[17],-0.577
same,glycan array binding signal (z-score),[18],-0.263
same,glycan array binding signal (z-score),[19],-0.319
same,glycan array binding signal (z-score),[20],0.811
same,glycan array binding signal (z-score),[21],-0.416
same,glycan array binding signal (z-score),[22],-0.732
same,glycan array binding signal (z-score),[23],0.348
same,glycan array binding signal (z-score),[24],0.432
same,glycan array binding signal (z-score),[25],-0.09
same,glycan array binding signal (z-score),[26],-0.735
same,glycan array binding signal (z-score),[27],-0.48
same,glycan array binding signal (z-score),[28],0.286
